Source: PubChem BioAssay AID488969 (Vanderbilt High Throughput Screening Facility, 2010)
The full ranking holds about 110,000 compounds; the median of “z-score” is about -0.1, and the highest 2% start at about 2. The list shows a part of the results. Calls of active or inactive are those of the source.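 Rule for the calls: active = z-score in the third read window above 3 or below -3; inactive = the rest.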

What follows are compounds tested against Metabotropic glutamate receptor 8 (Rattus norvegicus) (UniProt P70579) (assay: rat mGluR8 modulators via GIRK flux, primary screen, cell-based, thallium flux, HTS (AID 488969)). Settings: HEK293 rat mGluR8, GIRK (G protein-gated inwardly rectifying potassium channel) thallium flux, FluoZin2; at 10 µM; stronger effect = higher value; submaximal glutamate (EC20) added with thallium.
Sequence of UniProt P70579 (P70579 whole entry, looked up): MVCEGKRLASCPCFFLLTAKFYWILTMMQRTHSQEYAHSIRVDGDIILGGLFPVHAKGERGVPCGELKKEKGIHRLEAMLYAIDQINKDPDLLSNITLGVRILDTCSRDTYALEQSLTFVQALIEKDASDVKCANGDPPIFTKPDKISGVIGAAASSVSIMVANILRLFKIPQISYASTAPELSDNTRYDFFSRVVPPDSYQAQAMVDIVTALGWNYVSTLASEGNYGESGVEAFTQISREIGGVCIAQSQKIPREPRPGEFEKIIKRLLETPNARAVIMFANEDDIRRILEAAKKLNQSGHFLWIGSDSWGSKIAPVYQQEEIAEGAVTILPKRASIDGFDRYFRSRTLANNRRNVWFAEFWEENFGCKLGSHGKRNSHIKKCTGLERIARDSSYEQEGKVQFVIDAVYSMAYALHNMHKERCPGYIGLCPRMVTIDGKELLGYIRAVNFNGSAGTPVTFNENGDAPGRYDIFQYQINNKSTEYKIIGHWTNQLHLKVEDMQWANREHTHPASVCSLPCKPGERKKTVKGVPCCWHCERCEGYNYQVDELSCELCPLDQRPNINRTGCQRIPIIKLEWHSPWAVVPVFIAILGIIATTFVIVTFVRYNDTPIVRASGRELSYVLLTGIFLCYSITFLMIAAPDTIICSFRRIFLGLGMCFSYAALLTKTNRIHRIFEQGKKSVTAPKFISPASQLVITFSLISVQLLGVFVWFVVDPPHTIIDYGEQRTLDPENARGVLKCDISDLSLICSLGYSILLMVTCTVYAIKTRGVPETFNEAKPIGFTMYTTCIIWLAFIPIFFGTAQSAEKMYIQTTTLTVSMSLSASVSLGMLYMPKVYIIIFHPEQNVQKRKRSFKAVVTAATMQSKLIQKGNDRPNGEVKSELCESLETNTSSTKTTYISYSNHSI

| SMILES | z-score |
| --- | --- |
| CC1CCc2sc3c(c2C1)c1ncnn1c(=O)n3CC(=O)c1ccc(Br)cc1 (configuration not stated) | -0.357 |
| Cc1cccc(N2CCN(C(=O)c3cc4ccccc4oc3=O)CC2)c1C | -0.171 |
| CC1CCCN(S(=O)(=O)c2cc(Cl)ccc2Cl)C1 (configuration not stated) | 0.0758 |
| Cc1c(CN(C)C)c2c(n1Cc1ccccc1)C(=O)c1ccccc1-2 | 1.29 |
| O=C(NNC1=Nc2cccc3cccc1c23)c1ccccc1Br | -0.176 |
| COc1cc(C(=O)NNC(=O)c2ccc(S(=O)(=O)N3CCCCC3)cc2)cc(OC)c1OC | -0.0227 |
| CC(=O)Nc1ccc(S(=O)(=O)Nc2ccc(S(=O)(=O)N3CCCC3)cc2)cc1 | 0.105 |
| O=C(c1ncn[nH]1)N1CCN(c2nc(-c3ccccc3)cs2)CC1 | -0.0847 |
| O=C(NNS(=O)(=O)c1ccc2ccccc2c1)c1cccs1 | -0.0652 |
| O=C(NCC1(c2ccccc2)CCCC1)c1ccccc1Br | -1.2 |
| COc1ccc(C(=O)N/N=C(\c2ccccc2)c2ccccn2)cc1 | -0.109 |
| CCCOC(=O)c1ccc(NC(=O)C2CCCO2)cc1 (configuration not stated) | 0.526 |
| Cc1ccccc1-n1nc(C)c2cc(C(=O)N3CCOCC3)sc21 | 0.691 |
| CCOC(=O)c1ccccc1N1C(=O)CSC1=S | -0.0781 |
| Cn1c(=O)c2c(nc(N3CCOCC3)n2CCCNC2=NCCC2)n(C)c1=O | -0.611 |
| O=C(Nc1ccc(N2CCOCC2)c(C(=O)O)c1)c1ccco1 | -0.242 |
| COc1ccc(C(=O)Nc2cc(C(F)(F)F)ccc2-n2cncn2)cc1 | -1.48 |
| O=C(Cn1cc([N+](=O)[O-])cn1)Nc1ccc(Cn2cc(Br)cn2)cc1 | -0.16 |
| Oc1ccc(/C=N/Nc2nccnc2Cl)c(O)c1 | -0.352 |

| SMILES | z-score |
| --- | --- |
| CCOC(=O)C1=C(C)Nc2ncnn2C1/C=C/c1ccccc1 (configuration not stated) | -0.259 |
| Cc1ccc(N2C(=O)CSC23C(=O)Nc2ccccc23)cc1 (configuration not stated) | -0.314 |
| COC(=O)c1cc(C(=O)OC)cc(N2C(=O)CC(NNC(=O)c3ccccc3Br)C2=O)c1 (configuration not stated) | -0.097 |
| N#Cc1nc(COc2ccc(Br)cc2)oc1NCCN1CCOCC1 | -0.364 |
| COC(=O)c1cc2occc2n1Cc1ccc(Cl)cc1 | 0.19 |
| COc1ccc(NCc2cc3ccccc3[nH]c2=O)cc1 | -0.457 |
| O=C(Nc1ccccc1)c1ccsc1 | -0.247 |
| Cc1csc(NC(=O)Cc2coc3cc(C)c(C(C)C)cc23)n1 | 0.437 |
| CSCCC(Nc1ncnc2ccc(Br)cc12)C(=O)O (configuration not stated) | 1.43 |
| O=C(NC(CO)(CO)CO)c1coc(=O)c(Br)c1 | 0.253 |
| O=C(/C=C/c1ccc(OCc2ccccc2)c(OCc2ccccc2)c1)c1cccnc1 | 0.691 |
| COC(=O)c1cc(NC(=O)C2CC2)cc(C(=O)OC)c1 | 0.0071 |
| COc1ccc2oc(=N)c(C(=O)Nc3ccccc3)cc2c1 | -0.165 |
| CN1CCCN(CC(O)COCc2cccs2)CC1 (configuration not stated) | 0.644 |
| Cc1ccccc1C(=O)Nc1nnc(-c2ccc(C(C)(C)C)cc2)s1 | -0.00498 |
| O=C(NCc1ccc2c(c1)OCO2)c1ccc(N2CCCC2=O)cc1 | -0.129 |
| CCOC(=O)CSC1=Nc2ccccc2C2=NC(CC(=O)NCc3ccc(OC)cc3)C(=O)N12 (configuration not stated) | 0.556 |
| CC(C)(C)C1CCC(=NNS(=O)(=O)c2ccc(Br)cc2)CC1 (configuration not stated) | 0.0546 |
| CCOc1ccc(Cl)cc1S(=O)(=O)n1nnc2ccccc21 | -1.58 |

| SMILES | z-score |
| --- | --- |
| Cc1ccc(-c2c(C#N)c(N)n(-c3ccccc3)c(=O)c2C#N)cc1 | -0.595 |
| Cc1ccc(NC(=O)C2CCN(S(=O)(=O)c3c(C)n[nH]c3C)CC2)nc1 | 0.0104 |
| Cn1c(NC(=O)C2CCCC2)cc(=O)n(C)c1=O | 0.268 |
| O=C(O)CCc1ccc(-c2cccs2)n1NC(=O)c1ccc(O)cc1 | 0.204 |
| Cc1nc(SCC(=O)Nc2c(C)n(C)n(-c3ccccc3)c2=O)nc(C)c1C | -0.261 |
| CC(C)(C)c1nnc(NC(=O)c2cc(-c3ccccc3)nc3ccccc23)s1 | -0.432 |
| CCCNC(=O)Cc1c(OC)ccc2cc(Br)ccc12 | 0.421 |
| Clc1ccc(-c2cc(CSc3cccc(Cl)c3)on2)cc1 | -0.234 |
| O=C(c1cc2cc(Br)cc(Br)c2oc1=O)N1CCCC1 | -0.0504 |
| COc1ccc2cc(C(=O)Nc3ccccc3)sc(=O)c2c1OC | active: 4.25 |
| COc1ccccc1NC(=O)COc1cc(C)nc(C(C)C)n1 | -0.0151 |
| COC(=O)COc1ccc(S(=O)(=O)N2CCN(c3ccc(F)cc3)CC2)cc1 | 0.0507 |
| CCOC(=O)C1=C(N)OC2=C(C(=O)CC(C)(C)C2)C1c1ccccc1OCC#N (configuration not stated) | -0.157 |
| COc1ccc2nc(-n3c(C)ccc3C)sc2c1 | -0.0693 |
| Cc1cccc(NS(=O)(=O)c2cc(OCC(N)=O)c(C)cc2Cl)c1 | -0.0781 |
| O=C(O)C1CCCCC1C(=O)NCCc1ccncc1 (configuration not stated) | 0.277 |
| CCc1cccc2c1NC(=O)C21N2CCCC2C(C(=O)c2ccc3ccccc3c2)C12C(=O)Nc1ccccc12 (configuration not stated) | -0.259 |
| CC(=O)c1c(C)[nH]c(C(=O)Nc2ccc(C)c(C)c2)c1C | 0.0111 |
| N/C(Cc1ccc(Cl)cc1Cl)=N\OC(=O)c1cccs1 | -0.117 |
